# Hit rate of the full screen: of about 410,000 compounds, about 850 (0.21%) were called active. Inconclusive means that the source gave no clear call. Such entries were picked first, then a sample of the others. The call rests on the fitted dose curve; in most records, active means well fitted inhibition curve with a large enough effect; inconclusive means small, poorly fitted or top-dose-only effect, or another doubt; inactive means no such curve, though single readings can be large or run the other way. No potency is given beside an inconclusive call; the fits are too rough.
# Target: Glutaminase kidney isoform, mitochondrial (Homo sapiens) (UniProt O94925)
# UniProt O94925, sequence (O94925 whole entry, looked up, canonical isoform): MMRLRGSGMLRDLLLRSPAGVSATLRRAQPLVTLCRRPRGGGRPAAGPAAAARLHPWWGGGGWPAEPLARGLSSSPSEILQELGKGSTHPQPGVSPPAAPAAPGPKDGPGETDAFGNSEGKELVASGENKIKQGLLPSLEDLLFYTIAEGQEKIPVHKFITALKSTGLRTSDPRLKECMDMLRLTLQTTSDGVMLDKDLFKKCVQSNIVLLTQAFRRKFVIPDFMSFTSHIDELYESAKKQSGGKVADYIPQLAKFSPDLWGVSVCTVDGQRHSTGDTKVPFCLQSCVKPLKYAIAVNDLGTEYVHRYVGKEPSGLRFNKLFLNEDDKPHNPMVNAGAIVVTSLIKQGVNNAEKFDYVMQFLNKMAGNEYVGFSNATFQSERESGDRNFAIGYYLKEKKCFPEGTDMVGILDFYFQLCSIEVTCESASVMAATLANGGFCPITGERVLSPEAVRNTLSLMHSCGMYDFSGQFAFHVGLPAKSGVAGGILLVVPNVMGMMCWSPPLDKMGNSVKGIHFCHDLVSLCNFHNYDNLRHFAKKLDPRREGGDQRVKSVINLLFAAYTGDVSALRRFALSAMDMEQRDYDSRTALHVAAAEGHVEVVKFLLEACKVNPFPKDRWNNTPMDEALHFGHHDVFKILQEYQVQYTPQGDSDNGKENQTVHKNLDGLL
# Assay: qHTS for Inhibitors of Glutaminase (GLS)
# Details: GLS enzymatic activity, qHTS titration; series mostly up to 45.5 µM
# Procedure, shortened: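 hKGA in 45 mM KH2PO4 (pH 8.2), 0.02% Tween-20 with compound, then 1mM L-Glutamine (stock as added) plus glutamate oxidase/HRP/Amplex red coupling mix. Fluorescence read initially and after 30 min at RT; signal change reflects glutamate formation.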
# Potency means the concentration at half of the fitted maximal effect; tags describe the fitted curve by direction and shape.
row,SMILES,Potency
1,Cc1csc(NC(=O)CSCC(=O)O)c1-c1nc2ccccc2s1,"inconclusive [inhibitor, single point]"
2,Cc1ccc(-c2c3c([nH]c(=S)c2C#N)CCCC3)o1,"inconclusive [inhibitor, partial curve, poor fit]"
3,Cc1c(C(=O)NCc2ccc(C(C)C)cc2)sc(=O)n1Cc1ccc(S(=O)(=O)N(C)C)cc1,inactive
4,C=CS(=O)(=O)c1sc(Cl)c(N2CCOCC2)c1[N+](=O)[O-],"inconclusive [inhibitor, partial curve]"
5,O=c1cc(CN2CCN(Cc3ccccc3)CC2)c2ccc(O)c(O)c2o1,"inconclusive [inhibitor, partial curve, poor fit]"
6,Cc1cc(S(=O)(=O)Nc2cccc(C(=O)O)c2)c(C)c(S(=O)(=O)c2ccccc2)c1,"inconclusive [inhibitor, single point]"
7,CS(=O)(=O)N(CC(=O)N1CCN(c2ccccc2)CC1)c1ccccc1Cl,"inconclusive [inhibitor, single point]"
8,COc1ccccc1Nc1nc(-c2cccnc2)cs1,"inconclusive [inhibitor, partial curve]"
9,CCc1ccc2c(c1)c1nnc(NN)nc1n2CC,"inconclusive [inhibitor, single point]"
10,Cc1cccc(NC(=O)c2cc(S(=O)(=O)N3CCCCC3)c[nH]2)c1C,"inconclusive [inhibitor, single point]"
11,Clc1ccc(CO/N=C2\CCCc3nonc32)cc1,"inconclusive [inhibitor, single point]"
12,C[N+](C)(C)CCC(=O)N1C/C(=C/c2ccccc2)C(=O)/C(=C\c2ccccc2)C1,inactive
13,CC1(C)Cc2c(c(N3CCCC3)nc3sc4c(N5CCN(CCO)CC5)ncnc4c23)CO1,"inconclusive [inhibitor, single point]"
14,Nn1cnnc1SCC(=O)Nc1ccc2c(c1)OCO2,"inconclusive [inhibitor, single point]"
15,CCn1cc(CNCc2ccc(OCC(O)CN(C)Cc3ccccc3)cc2)cn1 (centres undefined),"inconclusive [inhibitor, single point]"
16,CCCCNc1nc(=S)[nH]c2cc(OC)c(OC)cc12,"inconclusive [inhibitor, single point]"
17,COc1cc(CNCc2ccccn2)ccc1OCc1c(Cl)cccc1Cl,inactive
18,Cc1ccc(S(=O)(=O)N2CCOCC2)cc1C(=O)OCCOc1cccc(Cl)c1,inactive
19,Cc1ccc(S(=O)(=O)N(CC(=O)NCc2cccnc2)c2ccc(F)cc2)cc1,inactive
20,O=C(CN1CCN(c2ccc(O)cc2)CC1)Nc1cc(S(=O)(=O)N2CCCCC2)ccc1Cl,inactive
21,Cc1cc(C)n(CC(=O)NC2CCCCC2C)c(=O)c1C#N (centres undefined),inactive
22,CCN1CCN(CC(O)COC(c2ccccc2)c2ccccc2)CC1 (centres undefined),inactive
23,Cc1ccc2oc(=O)c(/C=C(\O)c3sc(C)nc3C)nc2c1,"inconclusive [inhibitor, partial curve, poor fit]"

row,SMILES,Potency
1,CC(C)(C)c1ccc(O)c(N=Cc2cc(Br)ccc2O)c1,"inconclusive [inhibitor, single point]"
2,Cc1cc(O)c(NC(=O)c2ccc(C)c([N+](=O)[O-])c2)cc1C,"inconclusive [inhibitor, single point]"
3,N#C/C(=C\c1cccs1)C(=O)c1ccccc1,"inconclusive [inhibitor, single point]"
4,Cc1ccc(-c2cc(C(F)F)n3ncc(C(=O)NN4CCCCC4)c3n2)cc1,"inconclusive [inhibitor, full curve, poor fit]"
5,CCOc1cc(NC(=S)NCC2CCCO2)c(OCC)cc1NC(=O)c1ccccc1F (centres undefined),inactive
6,CCOc1cc(CNc2ccc(N(C)C)cc2)cc(Br)c1OCC(=O)NC(C)(C)C,inactive
7,CCN1c2ccccc2-n2cccc2C12CCN(C(=O)Nc1ccccc1C(F)(F)F)CC2,"inconclusive [inhibitor, single point]"
8,COc1cccc(/C=N/NC(=O)CNC(=O)c2cccs2)c1O,"inconclusive [inhibitor, partial curve]"
9,COC(=O)Cc1ccc(OCC(=O)NC2CCCC2)cc1,inactive
10,O=[N+]([O-])c1cccc(/C([O-])=C(/C(=S)Nc2cccc3ccccc23)[n+]2ccccc2)c1,inactive
11,c1ccc(CNc2nc3ccccc3c3nc(-c4ccccc4)nn23)cc1,inactive
12,CC1CC(C(F)(F)C(F)(F)F)n2nc(C(=O)O)cc2N1 (centres undefined),active: 15.8 µM
13,N#CC1=C2SCN(C3CCCCC3)CN2C(=O)CC1c1ccc(Cl)cc1 (centres undefined),inactive
14,COC(=O)c1cc2occc2n1CC(=O)Nc1ccc(N(C)C)cc1,inactive
15,CCc1ccc(NC(=O)CS(=O)CC(=O)Nc2ccc(F)cc2F)cc1 (centres undefined),inactive
16,CCCC(=O)Nc1ccc(C(=O)N/N=C/c2ccc([N+](=O)[O-])o2)cc1,inactive
17,CN(C)c1ccc(NC(=O)Nc2ccc3c(c2)nnn3C)cc1,"inconclusive [inhibitor, partial curve]"
18,CCOc1ccc(NC(=O)Cc2c(C(=O)O)n(C)c3ccccc23)cc1,"inconclusive [inhibitor, partial curve, poor fit]"
19,O=c1c2ccccc2nc(/C=C/c2cccnc2)n1CCc1ccccc1,"inconclusive [inhibitor, partial curve]"
20,COc1ccc(NC(=O)/C(C#N)=C\c2ccc(-c3cc(C(=O)O)ccc3C)o2)cc1,"inconclusive [inhibitor, single point]"
21,CC(=O)N1CC23C=CC(CC2CC12CCCCCC2)O3 (centres undefined),"inconclusive [inhibitor, single point]"
22,CC1(C(=O)O)CCC2(C)CCC3(C)C(=CC(=O)[C@@H]4C5(C)CC[C@H](O[C@H]6O[C@H](C(=O)O)C(O)C(O)[C@H]6O[C@@H]6O[C@H](C(=O)O)C(O)C(O)C6O)C(C)(C)[C@@H]5CCC43C)[C@@H]2C1 (some centres undefined),active: 14.1 µM
23,COc1ccc(OC)c(NC(=O)Cn2c(=O)cc(-c3ccccc3)c3c(C)nn(C)c32)c1,"inconclusive [inhibitor, single point]"

row,SMILES,Potency
1,CC(C)(C)c1cc(C(=O)NNc2cccc(Cl)c2)n(Cc2ccccc2)n1,"inconclusive [inhibitor, partial curve]"
2,CCc1ccc(S(=O)(=O)c2nnn3c2nc(Nc2ccc(NC(C)=O)cc2)c2sccc23)cc1,"inconclusive [inhibitor, single point]"
3,COCCNC(=O)Nc1ccc2nc(-c3ccco3)c(-c3ccco3)nc2c1,"inconclusive [inhibitor, partial curve, poor fit]"
4,COc1cc(/C=C2/C(=N)N3N=C(CC(=O)N4CCOCC4)SC3=NC2=O)ccc1OCc1ccccc1F,inactive
5,CCCCNC(=O)c1cc2c(-c3ccc(Cl)cc3)nn(C)c2s1,inactive
6,Cc1n[nH]c(=S)n(NC(=O)CC(=O)Nn2c(=S)[nH]nc(C)c2=O)c1=O,"inconclusive [inhibitor, partial curve]"
7,COc1ccc(-c2cc(C(F)(F)F)nc(NCCc3ccccc3)n2)cc1OC,inactive
8,CCOC(=O)c1sc(NC(=O)c2cc(-c3ccccc3C)nc3ccccc23)c(C#N)c1C,"inconclusive [inhibitor, single point]"
9,CCN(CC1CCCN(CCc2cccc(OC)c2)C1)C(=O)c1ccoc1C (centres undefined),"inconclusive [inhibitor, single point]"
10,O=C(O)CCCNc1cc(N2CCN(C(=O)c3ccco3)CC2)c2noc3c2c1C(=O)c1ccccc1-3,"inconclusive [inhibitor, single point]"
11,O=c1c(O)cccc2cc(O)c(O)c(O)c12,active: 1.58 µM
12,CCCn1c(CN2CCN(C(=O)OCC)CC2)nc2cc(NC(=O)CC)ccc21,"inconclusive [inhibitor, single point]"
13,COc1cc2cc(CNc3ccccc3)c(=O)n(CC(=O)Nc3cccc(Cl)c3C)c2cc1OC,"inconclusive [inhibitor, partial curve, poor fit]"
14,N=C1/C(=C/c2ccc(-c3cccc(C(=O)O)c3)o2)C(=O)N=C2SC(CC(=O)N3CCOCC3)=NN12,"inconclusive [inhibitor, single point]"
15,Cn1cc(-c2coc3c(C(=O)NCc4cccs4)cccc23)cn1,"inconclusive [inhibitor, single point]"
16,COc1ccc(N2CC(C(=O)Nc3ccc([N+](=O)[O-])cc3Br)CC2=O)cc1 (centres undefined),inactive
17,CCOc1ccccc1Nc1nc2ccccc2c2nncn12,inactive
18,Cc1ccc(-c2csc(N3CCC(C(N)=O)CC3)n2)cc1,inactive
19,O=C(O)COc1ccc(NC(=O)c2ccc3c(c2)C(=O)N(C2CCCCC2)C3=O)cc1,"inconclusive [inhibitor, single point]"
20,C(=N\Nc1nc(-c2ccccc2)cs1)/c1ccncc1,"inconclusive [inhibitor, single point]"
21,Cn1cccc1C(=O)C(=O)Nc1cc(Cl)cc(Cl)c1,"inconclusive [inhibitor, single point]"
22,C=CCNc1nc(C(=O)OCC(=O)c2cccc(Br)c2)cs1,"inconclusive [inhibitor, single point]"
23,CCCC(=O)NC1=C(Cl)C(=O)c2ccccc2C1=O,"inconclusive [inhibitor, single point]"
